# Test results from the BET-seq Pho4 binding data (Le et al. 2018).
# Some of the results follow. These are noisy estimates, calculated here from bound and input reads.
# Biological target: T1, Pho4 (S. cerevisiae) (UniProt P07270)
# T1 sequence: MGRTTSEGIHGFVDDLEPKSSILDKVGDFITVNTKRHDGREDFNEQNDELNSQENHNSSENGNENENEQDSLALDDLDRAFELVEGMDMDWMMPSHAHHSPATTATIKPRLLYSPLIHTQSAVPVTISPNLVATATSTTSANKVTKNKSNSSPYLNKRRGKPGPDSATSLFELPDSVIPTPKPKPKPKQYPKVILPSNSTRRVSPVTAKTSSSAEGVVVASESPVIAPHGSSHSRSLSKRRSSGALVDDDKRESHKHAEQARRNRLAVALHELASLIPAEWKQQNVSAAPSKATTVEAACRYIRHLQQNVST
# Experiment: relative binding free energy (BET-seq); higher = weaker binding
# Details: reference: library average
row,Sequence,relative binding free energy [kcal/mol]
1,TGGGTCACGTGGCACG,0.01
2,GGATGCACGTGTGTTG,0.03
3,TTGAGCACGTGTTGGA,0.06
4,CGGAGCACGTGAAGTG,0.31
5,TTGCTCACGTGGGGCT,0.16
6,GGGACCACGTGAGTGT,0.17
7,TTATACACGTGTAGAG,-0.01
8,AATAGCACGTGGTGTT,-0.21
9,TCTAACACGTGTAGTT,0.12
10,CGATTCACGTGGGATG,0.02
11,AATTGCACGTGGGGTT,-0.13
12,TAGGTCACGTGGGCCA,-0.02
13,CATTTCACGTGGTGTT,0.05
14,GGTGACACGTGTTGAA,0.09
15,AAGTACACGTGTTTAA,0.09
16,GTTGGCACGTGGCGAT,-0.02
17,AGTTGCACGTGGGGTA,-0.28
18,AAAGACACGTGTGGAG,0.16
19,ACGCTCACGTGGGGTT,-0.07
20,ATGAGCACGTGTTGAA,-0.09
21,TAGGACACGTGTCGGG,0.13
22,GTGCGCACGTGGTCTG,-0.23
23,CGAAGCACGTGGGGCG,-0.28
24,GTGTACACGTGGGGTC,-0.03
25,TGTGACACGTGGATAA,0.14
26,TGGGGCACGTGTTTGA,-0.04

row,Sequence,relative binding free energy [kcal/mol]
1,TTGAGCACGTGTTTTT,-0.01
2,GCGTTCACGTGGGTAA,0.16
3,CAAGACACGTGTGGGT,-0.09
4,TGCAGCACGTGAGAGG,0.17
5,TGTATCACGTGGTAGT,0.06
6,TAGAGCACGTGGATTT,-0.03
7,GGGGTCACGTGCGTCG,0
8,TGTGACACGTGGGTAA,-0.27
9,GGGTCCACGTGTGGTA,0.28
10,GTGAGCACGTGAGGAG,0.32
11,GTGATCACGTGGAGGA,0.2
12,GGGCTCACGTGGAGTA,0.17
13,GTCGTCACGTGACGGT,0.16
14,AAGTTCACGTGCGGAT,0.22
15,AGGGGCACGTGCTTGC,-0.25
16,GGATGCACGTGTATCT,0.05
17,GAGAGCACGTGGGTGC,-0.22
18,TCGGTCACGTGAAGCG,0.42
19,GTAGACACGTGTTGGC,0.02
20,GATTGCACGTGCTGTG,0.04
21,TTCGGCACGTGTGCAT,0.01
22,TCGTTCACGTGTGGTA,0.35
23,CAAGGCACGTGGGAGA,-0.08
24,ATCGTCACGTGTATTG,0.04
25,ATAGGCACGTGTTTAT,-0.15
26,GCGGCCACGTGTGGGT,0.04

row,Sequence,relative binding free energy [kcal/mol]
1,CAAGTCACGTGAGTGG,0.28
2,GGTCACACGTGGGAGC,0.06
3,ATTGGCACGTGGTTTC,-0.08
4,ACGGGCACGTGAGGCG,-0.07
5,TGAGACACGTGGGGAA,0.03
6,GCCGTCACGTGGGGTT,-0.17
7,TCTGACACGTGTGGGG,0.06
8,AGGGACACGTGCGTGT,-0.15
9,AGTGGCACGTGAAGAT,0.15
10,CTTGTCACGTGTTTTT,0.22
11,TAACTCACGTGTGTAG,0.27
12,GAGTACACGTGGGAGC,0.07
13,TTAAACACGTGATGGG,0.07
14,GGTTACACGTGATTGA,0.21
15,GCGAGCACGTGTAGTT,0
16,GGGCGCACGTGGTGGC,-0.14
17,CGAGGCACGTGGGAAG,-0.34
18,AAGGTCACGTGAAGTG,0.22
19,TACTTCACGTGTGAGG,0.27
20,GGTGTCACGTGGGTCT,-0.05
21,TGATGCACGTGGGTCT,-0.05
22,AGGATCACGTGTTGGA,0.28
23,GTAGGCACGTGTGTAA,-0.04
24,GGCGGCACGTGAGTCA,0.2
25,TTTCGCACGTGTTGCT,-0.1
26,GGGTTCACGTGCTGTG,0.4

row,Sequence,relative binding free energy [kcal/mol]
1,GCAGTCACGTGGTGCT,0.02
2,GAGTACACGTGGTTTA,0.06
3,TGGAGCACGTGGATCT,-0.04
4,AGGTGCACGTGTTGTT,-0.1
5,GGTTGCACGTGATTCT,0.27
6,GCATGCACGTGGGAGG,-0.07
7,GTTAACACGTGGGGTA,-0.09
8,CATGTCACGTGATGGA,0.18
9,TTTTGCACGTGCCGTT,0.01
10,TTTTACACGTGGTTTC,0.13
11,TATTACACGTGTGTCT,0.1
12,AAATACACGTGGGTTG,-0.12
13,CGTTACACGTGTTTTT,0.04
14,AAATGCACGTGTAGTT,0
15,CTTGACACGTGCGGTG,-0.16
16,TGGGGCACGTGATTAT,-0.02
17,TTATTCACGTGGGGAG,0.14
18,AAGGTCACGTGGGAAT,0.09
19,TGTTACACGTGTACAT,0.18
20,TTTTTCACGTGGGCAC,0.22
21,TCGGACACGTGCGGGT,-0.09
22,GGCCGCACGTGTGGGA,0.01
23,ATAAACACGTGGGAGG,0.08
24,GGCGACACGTGTTTTG,0.13
25,GGTAGCACGTGAGATA,0.18
26,TTATTCACGTGATGCG,0.3

row,Sequence,relative binding free energy [kcal/mol]
1,GCGGGCACGTGTAATG,0.04
2,AGTTACACGTGTAAAG,0.13
3,TGTGCCACGTGTTAAG,-0.09
4,TATAACACGTGAGAGT,0.18
5,TCCATCACGTGGTTTA,0.32
6,CTGTACACGTGTGGGG,0.16
7,GACTTCACGTGGTGTG,0.2
8,TGAGGCACGTGACTTG,0.12
9,ATGCACACGTGCGGGT,-0.13
10,GCTTTCACGTGTAATG,0.36
11,GGTGGCACGTGTGTAG,-0.06
12,ATGGGCACGTGGACTG,-0.05
13,TGTGTCACGTGGAAAG,0.11
14,GCTTTCACGTGTTGGT,0.37
15,AAATTCACGTGTTTGC,0.16
16,TCGTTCACGTGCAGTG,0.47
17,AGAGGCACGTGGGCGG,-0.23
18,ACGGGCACGTGGGGCA,-0.09
19,GCGGACACGTGATGGG,-0.06
20,TGCGGCACGTGTTGGC,-0.19
21,TAGATCACGTGTCTGG,0.19
22,ATTGGCACGTGTGAGA,-0.05
23,GGGTGCACGTGCGGGT,-0.03
24,TGTGGCACGTGAAGAC,0.22
25,AGATGCACGTGGGACG,-0.21
26,ATGTACACGTGGTGGT,-0.14

row,Sequence,relative binding free energy [kcal/mol]
1,GAAGACACGTGTGGTA,0.01
2,ATTGTCACGTGTGGCC,0.22
3,GAAGGCACGTGGGCTA,-0.16
4,ATAGACACGTGGAATT,0.18
5,GTTAACACGTGTGGTC,0.14
6,TTGGGCACGTGGTGCC,-0.2
7,TATTGCACGTGTATGC,-0.05
8,TTGGCCACGTGATTTG,-0.01
9,AGGGGCACGTGATAGG,0.05
10,TTGGTCACGTGTGCGT,0.02
11,AAGTGCACGTGGAATT,0.01
12,TGTAGCACGTGTATAG,-0.05
13,TCGGTCACGTGTGAAT,0.38
14,TGTAGCACGTGCCGGG,-0.18
15,TCATGCACGTGGGCGT,-0.17
16,TGCGTCACGTGGTAAG,0.1
17,GGGGCCACGTGCGGTA,-0.24
18,TTGTGCACGTGCTATG,-0.14
19,GGGTCCACGTGCGGGT,-0.12
20,TCTGGCACGTGTTAAT,-0.03
21,GGATACACGTGCTGTT,0.05
22,CTGTACACGTGGGATA,0.02
23,AAAGGCACGTGGTGGA,-0.13
24,TGCTGCACGTGGGAGG,-0.14
25,AGGGACACGTGGTGAT,-0.13
26,TAATTCACGTGAGACT,0.45

row,Sequence,relative binding free energy [kcal/mol]
1,ATATACACGTGGGAGT,-0.14
2,GTCGGCACGTGGGAGC,0
3,AAGAGCACGTGGTAGT,-0.24
4,GATTGCACGTGAGCTT,0.28
5,GTAGTCACGTGGAGAT,0.06
6,TAGGTCACGTGTTACG,-0.02
7,TTGTGCACGTGCGCGT,-0.16
8,TTGTTCACGTGAAATT,0.37
9,GTATTCACGTGTTAGC,0.25
10,CGTAACACGTGGGTGT,-0.25
11,TTCGGCACGTGCATGA,-0.04
12,ATTAACACGTGGCTGT,-0.18
13,GTTTTCACGTGGATCG,0.5
14,TGTGCCACGTGTCTGA,0.03
15,TGTAGCACGTGCGATT,0.04
16,TTGGACACGTGGGCGA,-0.16
17,TTAAGCACGTGTGCAG,-0.11
18,AGGGTCACGTGCTAGG,0.11
19,ATAGGCACGTGCGTTA,-0.21
20,AGCATCACGTGGTGGA,0.11
21,TATATCACGTGGGGTT,-0.04
22,TGACTCACGTGTAGTT,0.12
23,GATAACACGTGGTTAA,0.17
24,ATTGTCACGTGCGATG,-0.02
25,GTTATCACGTGTCATG,0.24
26,CTTGTCACGTGAAGAT,0.24

row,Sequence,relative binding free energy [kcal/mol]
1,TATTTCACGTGACGGG,0.26
2,GGTTTCACGTGTAGAG,0.32
3,TGAGGCACGTGGGGTT,-0.2
4,AGCCGCACGTGTGGGG,-0.02
5,TTTGGCACGTGATAGA,0.01
6,AAGTTCACGTGTTCGA,0.3
7,TAAGCCACGTGGGGGT,-0.2
8,TTGGACACGTGTTTAG,0.18
9,TAGAGCACGTGTTGGG,-0.05
10,TAAAACACGTGAGTAG,0.25
11,GTGATCACGTGGTTAT,0.1
12,AGTTGCACGTGTGGGG,0.06
13,AAAGGCACGTGTGGGT,-0.05
14,GTGAGCACGTGTAATA,-0.03
15,GTCAACACGTGGGGTA,-0.12
16,GGGTACACGTGGGCCT,0.02
17,GCGTCCACGTGGGGTG,-0.12
18,TTGGTCACGTGGTTCC,-0.07
19,ACGGGCACGTGGTGCG,-0.34
20,AGGATCACGTGGTTCG,0.07
21,GTTCGCACGTGTTTAG,0.14
22,GGGACCACGTGGCGTG,-0.12
23,AATATCACGTGTATAG,0.1
24,TGAGTCACGTGATTAT,0.23
25,AATGGCACGTGAGACG,0.04
26,GGATTCACGTGGCGGC,0.24

row,Sequence,relative binding free energy [kcal/mol]
1,TGAAGCACGTGTGGGT,0.01
2,TACGTCACGTGATTTT,0.2
3,TACATCACGTGTGAGG,0.12
4,AGAGGCACGTGTAAGG,-0.01
5,GGGTTCACGTGTTATA,0.19
6,TAGGACACGTGCAGGT,-0.08
7,AAGGTCACGTGTAAGT,0.31
8,TTATTCACGTGCCGTT,0.14
9,AATATCACGTGATCGG,0.27
10,CGCTTCACGTGGTGTT,0.09
11,GGGAACACGTGTGGTC,0.11
12,ATGGGCACGTGAATGC,0.09
13,TATGACACGTGGTTCG,-0.03
14,TGGTGCACGTGGGGAG,-0.15
15,TATTGCACGTGTAATT,0.17
16,GTGTCCACGTGTTGAT,0.07
17,TGGCGCACGTGTTTTA,0.09
18,TGGCGCACGTGCTTGG,-0.14
19,AATGGCACGTGGCCGG,-0.25
20,AGCGGCACGTGTGCTG,-0.16
21,GTGAGCACGTGCGGCT,-0.12
22,TTGCTCACGTGTTTAT,0.27
